Reference: the supplement of paper PMC3334620
Whole data set: some 33,000 sequences, median “E-score (-0.5 to 0.5)” near -0.032, cut for the highest 2% near 0.36. Some of the results follow.

These sequences were tested against T1, Sko1 (UniProt Q02100) (assay: PBM E-score (8-mer binding enrichment) (E-score (-0.5 to 0.5)); higher = stronger / more preferred TF binding; most listed sequences are background and not binding sites). Settings: protein concentration: 200 nM; construct: GST-full length.
T1 sequence: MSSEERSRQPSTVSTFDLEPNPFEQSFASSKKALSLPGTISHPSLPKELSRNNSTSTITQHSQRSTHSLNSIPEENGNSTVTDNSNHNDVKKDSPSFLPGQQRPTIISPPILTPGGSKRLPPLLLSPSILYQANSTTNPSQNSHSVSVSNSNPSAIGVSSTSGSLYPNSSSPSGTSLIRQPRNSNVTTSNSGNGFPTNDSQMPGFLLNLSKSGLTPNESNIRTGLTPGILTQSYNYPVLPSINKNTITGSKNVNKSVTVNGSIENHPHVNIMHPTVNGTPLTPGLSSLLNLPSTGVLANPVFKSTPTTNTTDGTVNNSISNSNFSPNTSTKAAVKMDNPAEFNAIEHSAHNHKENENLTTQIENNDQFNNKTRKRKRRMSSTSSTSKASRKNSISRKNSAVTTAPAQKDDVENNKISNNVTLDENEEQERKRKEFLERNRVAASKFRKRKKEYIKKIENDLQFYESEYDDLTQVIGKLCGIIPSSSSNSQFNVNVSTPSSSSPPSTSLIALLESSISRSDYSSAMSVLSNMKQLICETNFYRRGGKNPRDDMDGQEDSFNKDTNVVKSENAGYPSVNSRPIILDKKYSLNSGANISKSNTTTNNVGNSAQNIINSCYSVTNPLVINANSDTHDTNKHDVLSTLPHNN
Procedure, shortened: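 Yeast transcription factors, full-length or as DNA-binding domains, were expressed with a GST tag using PURExpress in vitro transcription/translation. At about 100-200 nM they were applied to universal all-10-mer Agilent arrays, double-stranded by primer extension on fresh or once-stripped slides. Fluorescent anti-GST detected bound protein, and masliner normalised the scans. E-scores for ungapped eight-base words, pooled with reverse complements, came from the Universal PBM Analysis Suite.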

Row | Sequence | PBM E-score
1 | GTTATGCA | 0.0767
2 | ATTATCTA | 0.225
3 | AAAAAACA | 0.22
4 | ACCCGGAC | -0.152
5 | GACATGTC | 0.175
6 | GAAGGCGA | -0.268
7 | ATCATACC | 0.171
8 | AAAAGAGC | -0.00335
9 | CGTAACTA | 0.381
10 | ATCGACAT | 0.166
11 | CGGTTTTC | -0.0282
12 | ATGTAGGA | -0.0513
13 | AGTATATC | -0.0108
14 | CGTTCGGC | -0.211
15 | CGCATTAC | 0.15
16 | GCTGCACC | -0.318
17 | CCCGGAAC | -0.267
18 | AACTGTAA | 0.203
19 | GAGGCCGC | -0.229
20 | CTACCATC | -0.303
21 | AGAGCTTA | -0.0935
22 | ATCTCATA | 0.0762
23 | CGGACCCG | -0.216
24 | ACCTCATC | 0.183
25 | CGGGCTTA | -0.0967

Row | Sequence | PBM E-score
26 | GATTACAC | 0.0868
27 | GCAAGGGA | -0.177
28 | ATATTATC | 0.206
29 | ACCTTCAC | -0.0666
30 | AGCGGGTG | -0.163
31 | CATAGCCA | -0.0432
32 | AGTCGCTA | -0.0838
33 | CTAGGCCC | -0.305
34 | CAAGTCCC | -0.233
35 | GTGGGACA | 0.00558
36 | ATCCTATA | 0.0809
37 | ATGTCCAC | 0.116
38 | GACCGTAC | -0.0393
39 | CACTGAAA | 0.165
40 | CGATAATC | -0.025
41 | ACGTCACC | 0.489
42 | ACACCAGG | -0.235
43 | AAATCAAC | 0.0214
44 | CTCGCTCC | -0.0506
45 | AATACGCA | 0.407
46 | ACGCGGGC | 0.0933
47 | AGGTATTC | 0.0465
48 | GTCGCCTA | -0.174
49 | AGCGAGCA | -0.163
50 | CCACGGAC | -0.349

Row | Sequence | PBM E-score
51 | CGAGCCAA | -0.0335
52 | ACTTGTTG | -0.0653
53 | CTTACCCC | -0.226
54 | CTCAGAAA | 0.0103
55 | AAGAGACG | 0.0839
56 | AGTACGCA | 0.25
57 | CGGCTCTA | -0.173
58 | ACCAATAT | 0.079
59 | AAGGAGTG | -0.199
60 | ATGTACCG | 0.0579
61 | CAGACTAA | -0.116
62 | AACAGCAA | -0.029
63 | ACCTCGCA | -0.113
64 | CGCCAAGC | -0.27
65 | ACACACGC | 0.145
66 | AACCGTGA | 0.23
67 | GAGACCTC | -0.128
68 | CACGGTGA | 0.0231
69 | CTCGGCGC | -0.127
70 | ACGCAATG | 0.399
71 | CGGCCATA | -0.204
72 | CGCCATAG | 0.108
73 | ATAGCACC | -0.0103
74 | CAGCATAG | 0.0616
75 | CAGAGTCG | -0.107

Row | Sequence | PBM E-score
76 | AGGTCTTA | -0.0637
77 | ATGTAAAG | 0.156
78 | CGTCGGCC | 0.0115
79 | ATGACAAG | 0.0818
80 | GACTTGGC | -0.349
81 | GAGCCTTA | -0.205
82 | GTACGTAC | 0.44
83 | GCAAAACA | 0.0407
84 | GTCATTCA | 0.247
85 | AATACTAT | -0.00985
86 | CCCTCGAC | -0.192
87 | CGCGGGGA | -0.16
88 | ACCCGTAA | -0.00679
89 | AAGATATA | 0.174
90 | ATCTATCA | 0.185
91 | CTGCAACA | -0.00268
92 | CCTGTGTA | -0.0155
93 | CAGGAGAG | -0.264
94 | AGGGTGTC | -0.0619
95 | CCAAGAGG | -0.256
96 | AGAGCAAA | -0.062
97 | AGAGATAC | -0.00148
98 | ATAGAATA | 0.125
99 | AAGGAGGC | -0.161
100 | CAAGACCA | -0.184

Row | Sequence | PBM E-score
101 | CCCCCTCG | -0.371
102 | GTCTGCTA | 0.0287
103 | ATTATGGG | -0.143
104 | CATGACGC | 0.465
105 | ACTTCTGC | -0.0277
106 | AACATTCG | -0.0594
107 | AATTACCG | 0.163
108 | GTTCAGAA | -0.0502
109 | TACCTGAA | 0.143
110 | ACAGACCC | -0.0315
111 | AGTGGATG | -0.131
112 | AACAAGAA | 0.152
113 | AAAGCCCG | -0.215
114 | CTGCGCGC | 0.00015
115 | GTATTACA | 0.328
116 | AACTATCA | 0.151
117 | CGGTGCCA | -0.21
118 | ACGGCCTA | -0.142
119 | AAAGGTGG | -0.0647
120 | TCCGCGCA | 0.12
121 | AGATGGCA | 0.0618
122 | ACCTGAGC | 0.0188
123 | ACGATTAA | 0.109
124 | ACTCAGAT | 0.113
125 | TCTATTCA | 0.142

Row | Sequence | PBM E-score
126 | AGCGGTCA | -0.302
127 | GGCTGACA | -0.00803
128 | CATTCGGC | -0.262
129 | CGTACATA | 0.378
130 | ACGAGAGG | -0.0602
131 | AATACAGA | 0.095
132 | TACTTCTA | 0.177
133 | GCGAATCC | -0.0807
134 | ACCCGACT | -0.157
135 | AAGCCGAG | -0.275
136 | GACGCGAC | 0.0903
137 | GTTTTGTA | 0.262
138 | CTCCCTTC | -0.249
139 | CTCTTGAC | 0.00901
140 | AACGGGTC | -0.383
141 | AGCAAGAT | -0.0644
142 | AAGAGGCC | -0.215
143 | AGCGCCCT | -0.113
144 | GTTCGTGA | -0.0757
145 | AGTACGTA | 0.474
146 | CAAAGTGG | -0.33
147 | GTGACCGA | -0.112
148 | GACCGACC | -0.126
149 | GGTAGACC | -0.224
150 | ACGAAGCG | 0.00775

Row | Sequence | PBM E-score
151 | CTTGCGCC | -0.172
152 | CAGGTCCA | -0.232
153 | ATCGACGA | 0.0268
154 | CCGACTAC | -0.068
155 | CACCACTG | -0.175
156 | CTAGTGAA | -0.0191
157 | ATCCCCAC | -0.0231
158 | CCAGGGAC | -0.144
159 | ATGTCTTC | -0.0255
160 | ACCCAAAC | 0.124
161 | AGCTGCGA | -0.23
162 | GCCATTCA | -0.173
163 | GCTGATGA | 0.187
164 | ATTCTTTG | 0.0805
165 | ATTAAGGA | -0.0102
166 | CACGAGTC | -0.144
167 | CTCTAATC | -0.0586
168 | GACCGGAC | -0.338
169 | CAGCGGAG | -0.21
170 | ACCTTCGC | -0.111
171 | CAACAGCA | -0.129
172 | ATATTGAA | 0.298
